# Measured values taken from the supplement of paper PMC8728848.
# This is one part of the list.
# Key:
# Experiment in all cases: glycan array binding signal (z-score within array); higher = stronger binding
# Conditions in all cases: glycan notation: IUPAC condensed, linker removed
# [1] = biological target: Neu5Gc(a2-8)Neu5Gc(a2-3)Gal(b1-4)GlcNAc(b1-3)Gal(b1-4)GlcNAc
# Procedure, shortened: (§1)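 The binding signal is a Z-score computed within each array and averaged over linkers. Arrays of the same protein sequence at different concentrations or buffers were also averaged together. Data originate from 3228 arrays in the Consortium for Functional Glycomics database, kept only where the protein sequence was available.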
# [2] = biological target: Neu5Gc(a2-8)Neu5Gc(a2-6)Gal(b1-4)GlcNAc
# Procedure, shortened: as §1
# [3] = biological target: Neu5Gc(b2-6)Gal(b1-4)GlcNAc
# Procedure, shortened: as §1
binder,measurement,setting,value
DC-ASGPR S+GEE (Homo sapiens) (protein) MTRTYENFQYLENKVKVQGFKNGPLPLQSLLQRLRSGPCHLLLSLGLGLLLLVIICVVGFQNSKFQRDLVTLRTDFSNFTSNTVAEIQALTSQGSSLEETIASLKAEVEGFKQERQAVHSEMLLRVQQLVQDLKKLTCQVATINNNGEEASTEGTCCPVNWVEHQDSCYWFSHSGMSWAEAEKYCQLKNAHLVVINSREEQNFVQKYLGSAYTWMGLSDPEGAWKWVDGTDYATGFQNWKPGQPDDWQGHGLGGGEDCAHFHPDGRWNDDVCQRPYHWVCEAGLGQTSQESH,glycan array binding signal (z-score),[1],-0.242
same,glycan array binding signal (z-score),[2],-0.404
same,glycan array binding signal (z-score),[3],-0.355
